# Measurements from the supplement of paper PMC12632987.
# Over roughly 2,300 sequences, “median log2 fold change of GCK-ALFA target abundance (FLAG IP / Myc IP barcode read proportion)” has its median near 0.095; the lowest 2% begin near -0.47. This is one part of the list.
# B1: LC3A_28_1200 (protein)
# chain: SAADKTIENIKKQTEKALEKGDGEVIIVNITSTMTSEDIDKIIKTIKEEAEKLKDVSSVSIVINVDAGVPQEDITKLAETGEEIEKKYPNITVIIALDED
# B2: LC3A_102_138 (protein)
# chain: SIEEKIEELKERALEEMREALEEREDLTEEEKEELLELARKAIEATVESAKTLAQHGFVDIVAEDEALEALDRLEARDPELAKRLRELLERIEKEIEELY
# B3: LC3A_free_39_2219 (protein)
# chain: MEEEIEKLIKEIAEESGLDYEEVKEKLEEIKEIAGLSKEQIKEIAEALLEAVRAGADAKEILEEILKIAKELKAEGKSPEEIAKEILETIEDARNLVPLE
# B4: LC3A_28_658 (protein)
# chain: MPIEERLEEAIKKAKEAKEKGEPVVVTIKVPATANEEDIERIIETLEEIAEILKDIKGSAIIIDIEAGVPQEYRDRLIDKAEELEEKYPNVTVIIALEEE
# B5: LC3A_28_1289 (protein)
# chain: SAIEKEIAKALAEAKKAVEKGEPVVITITIPSGATEEEIAKVIKGLEEIAKLLSSVKDQAIVINVESGVKEEHINKLADKAEEIEEKYPNVTVIIALDED
# B6: LC3A_28_753 (protein)
# chain: MDIAAEVAAAIAEAKAAAAAGEEAVITITVPAGATEADVDIVIAGMREIAEIAKDMPSMTIVVDIEAGVPQEHIDRLMDEGEEIEEKYPNVTVIFALDED
# B7: LC3A_28_961 (protein)
# chain: SALDKQLEAVLAEAKAAAAAGEARVFTINVPGTADEEDIEKVIEALKEIAEILKNVKGSAIIVNVDAGVKQEHIDKIADAAEEIEKKYPNITVIIALDED
# B8: LC3A_free_39_2235 (protein)
# chain: SMEELDRLIREVAEEGGIDYEYVREKMEEIQKVAELSDEQMLELVKALLEAVRAGADAREILEDILKLAKELKEEGKSPEEILEALLERVEDYRNLVPLD
# B9: LC3A_28_1275 (protein)
# chain: SPLDKSLAAALAKAKEAKAKKESAVITIDVPGTATQEDIDKVIAALEEIAEILKDIPNQAIVINVDGKVPQEYIDKIADKAEEIEKKYPNITVIIALGEE
# B10: LC3A_28_954 (protein)
# chain: SALEKQLAAVLAEAREAAARGEARVFTITVPGTADEEDIEKVIEAMEEIAELLKDIPGSAIVINVEAGVKQEHIDKLIDKAEEIEEKYPNVTVIIALDED
# B11: LC3A_28_944 (protein)
# chain: MTIEEEIEKALKEAKEAKAKKEPAVITITVKGDATEEEIEKVIETIKEIAELLKDIKGSAIIVDVEKGVKEEHINKLLDTLDEIEKKYPNISAIMALDED
# B12: LC3A_3_1773 (protein)
# chain: MEELLARFEEKLRAAGFSEEVIKEALAAIKTFLEKGREEVAETFLELMLEAKDLSEEKLLVMARMAKELAEESKVSEEELIKELKRLFESIAGIEELDEE
# B13: LC3A_free_8_2499 (protein)
# chain: NVQEAVQKILEALDQLEEDVEKLGKELNLDPLDVNELLLEIGSLIAEVISLKDAPIEEIKKATLEGMKEILELAKKIHPELAKLVEKYTKKIEEIFKEAE
# B14: LC3A_28_1048 (protein)
# chain: SDLKKNAEEAIKEAEELAKKGEEAVVTINVGEIDTETAEKIVKETLERLAKISKEYGGIKISVVINFDGDQETFDAIAKAAEEAEKKNPNLTVIIAYPDK
# B15: LC3A_127_212 (protein)
# chain: EEKKLLEEALEIAEKALEAVKKIPEEGEKALKEAIELLKKLIELLEKVPSLKEAAEDAKQALEQLKKLPELNEADREEALEHIEMILEGILIEIESELDK
# B16: LC3A_28_1193 (protein)
# chain: SLADEAIAALRAQAAEALAKGADEVLTVRITSSMSLEDVERITAAMREEAERLASVPSVTIVVDVESGVSQESIDLVAETGEEIEARYPNVTVIIALDED
# B17: LC3A_28_1139 (protein)
# chain: SALVEAAKAQIRADAEADKDEPEVLLRVTVTSEMTVEQAKEIMAEVERVVEELKDKEKIYIVVDATEPISQEVLDTIVEELDRIEKKFPNVSSIIALPED
# B18: LC3A_132_260 (protein)
# chain: SEELLEEALKELKELLDKIVELLAKGEDPWPAVKELDEKAREYAEKLSLEETEELAEEVEEYARRLFEERLDPNDEEARRTLDIIEMLLDGVLIEKELRE
# B19: LC3A_45_1954 (protein)
# chain: MYVAEVSVLVPEAEFDRAVAVLREEAARLREERGLEVVIDEAALAAARAEAKEQGEALVTVTVRSERKDDALDGAVEIEDALEREMSPAVASIISIKEEP
# Molecular target: MAP1LC3A, Q9H492
# Assay: median log2 fold change of GCK-ALFA target abundance (FLAG IP / Myc IP barcode read proportion) (log2 ratio); each designed protein is fused to an ALFA-tag nanobody in HEK293 cells to bring the named protein to FLAG-tagged glucokinase (GCK); Myc marks an untargeted standard; higher = target protein stabilised (more abundant)
# Details: target protein: 3xFLAG-MCP-GCK-ALFA reporter; HEK293 landing pad (RPLP)
# Procedure, shortened: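 An ALFA-nanobody-fused binder library was recombined into HEK293 landing-pad cells and induced with 2 μg mL^−1 doxycycline. Cells were transfected with a plasmid expressing a FLAG-tagged target and a Myc-tagged standard. After 48 h, lysates underwent anti-FLAG and anti-Myc immunoprecipitation, and circular RNA barcodes were reverse transcribed, amplified and sequenced. Target abundance is the per-binder median log2 ratio of FLAG to Myc barcode read proportions. Barcodes needed ≥10^−7 proportion in both replicates, binders ≥3 barcodes per replicate, and a 10^−6 pseudocount was added; the two replicates were pooled.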
row,Binder,median log2 fold change
1,B1,0.341
2,B2,-0.281
3,B3,0.481
4,B4,-0.0501
5,B5,0.145
6,B6,-0.237
7,B7,0.13
8,B8,-0.103
9,B9,0.216
10,B10,0.125
11,B11,-0.897
12,B12,0.23
13,B13,0.209
14,B14,-0.215
15,B15,0.184
16,B16,0.169
17,B17,0.196
18,B18,-0.243
19,B19,-0.301
